# Test results: PubChem BioAssay (NCATS)
# Inconclusive results, whose numbers are uncertain, are shown with a selection of clear calls. Where a call stands in place of a potency, no number is given. A potency beside an inconclusive call is a rough fit, not a confirmed value. The source made the active and inactive calls. Calls come from the whole dose curve; as a rule, active = well fitted activation curve with a large enough effect in the main read-out, with a control signal flat (not every such curve was filed as active); inconclusive = small, poorly fitted or top-dose-only effect, or effect the other way, or a change in a side signal; inactive = flat fitted curve, though single readings scatter.
# Target: 3',5'-cyclic-AMP phosphodiesterase 4B (Homo sapiens) (UniProt Q07343)
# Assay: qHTS Assay for Inhibitors of PDE-IV (AID 607)
# Conditions: HEK293 ACTOne CNG channel cells, membrane potential fluorescence; series mostly up to 22.9 µM
# Method in brief: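 The readout is membrane depolarisation from a cAMP-sensing CNG channel, detected with a potential dye at ex 535/em 590. Cells were HEK293-derived (endogenous PDE-IV) at 1000 cells/well, titrated up to 22.9 uM final.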
# Potency is the fitted concentration of half-maximal effect; tags give direction and shape of the fitted curve.
# UniProt Q07343, sequence (Q07343 whole entry, looked up): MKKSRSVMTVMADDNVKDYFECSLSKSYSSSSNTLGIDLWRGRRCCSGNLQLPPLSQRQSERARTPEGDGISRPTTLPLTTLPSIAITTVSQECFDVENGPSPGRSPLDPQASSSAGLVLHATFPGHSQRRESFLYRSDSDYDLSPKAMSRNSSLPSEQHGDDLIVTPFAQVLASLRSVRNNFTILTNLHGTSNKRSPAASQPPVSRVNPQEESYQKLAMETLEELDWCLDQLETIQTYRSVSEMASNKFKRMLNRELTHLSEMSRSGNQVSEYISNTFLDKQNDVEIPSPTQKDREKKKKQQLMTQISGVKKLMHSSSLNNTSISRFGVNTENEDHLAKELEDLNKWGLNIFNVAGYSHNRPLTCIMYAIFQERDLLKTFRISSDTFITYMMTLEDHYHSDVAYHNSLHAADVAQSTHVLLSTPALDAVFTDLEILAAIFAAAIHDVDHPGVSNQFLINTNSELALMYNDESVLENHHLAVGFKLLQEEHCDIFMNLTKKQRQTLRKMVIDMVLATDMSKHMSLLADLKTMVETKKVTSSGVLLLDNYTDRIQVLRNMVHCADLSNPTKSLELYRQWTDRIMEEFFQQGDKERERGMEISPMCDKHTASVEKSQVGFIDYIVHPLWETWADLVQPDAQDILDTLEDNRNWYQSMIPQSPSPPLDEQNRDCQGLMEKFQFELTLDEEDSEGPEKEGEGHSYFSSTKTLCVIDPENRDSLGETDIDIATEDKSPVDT
row,SMILES,Potency
1,N#CCCn1c(=O)cnc2cnc(N3CCOCC3)nc21,"inconclusive: 6.31 µM [activator, partial curve]"
2,CC(C)[C@@H](CC(=O)N[C@@H]1CCNC[C@H]1C(=O)N[C@H](CC(=O)N[C@@H](CCC(=O)O)CC(=O)O)Cc1ccccc1)NC(=O)C[C@H](Cc1c[nH]c2ccccc12)NC(=O)[C@@H]1CCCC[C@H]1N,inactive
3,NC(=O)c1ncn([C@H]2O[C@@H](CO)[C@@H](O)[C@@H]2O)n1,inactive
4,CCCCc1c2ccccc2nc2[nH]c3ccccc3c12,"inconclusive: 12.6 µM [rising, partial curve]"
5,C[C@@H](C(=O)Nc1ccc2ccccc2c1)[C@@H]1C[C@@]1(C)[C@@H](NC(=O)c1ccncc1Cl)c1ccccc1,inactive
6,CN(C)CCCCN1CCc2c(n(C)c3ccccc23)C1=O,inactive
7,CC(C)=C1C(=O)C(c2ccccc2)=C2CN3C(=O)N(CCc4ccccc4)C(=O)[C@]3(C)[C@H]21,"inconclusive: 10 µM [activator, partial curve]"
8,COc1cc(O)c2c(=O)cc(-c3ccccc3)oc2c1,"inconclusive: 6 µM [activator, partial curve]"
9,COC(=O)[C@@]1(Cc2ccc(OC)cc2)[C@H]2c3cc(C(=O)N(C)C)n(Cc4cc(F)c(F)c(F)c4)c3C[C@H]2CN1C(=O)c1ccccc1,inactive
10,CC1(C)[C@@H]2CC[C@@]1(CS(=O)(=O)Nc1ccccc1)C(=O)C2,inactive
11,C#CCOC(=O)NC(/C=C/CCCC)c1ccccc1 (stereo not given),"inconclusive: 10 µM [rising, single point]"
12,N[C@H](C(=O)O)c1ccc(C(=O)O)cc1,"inconclusive: 19 µM [activator, single point]"
13,COc1ccc2nc3c(c(-c4ccccc4)c2c1)CCC3,"inconclusive: 10 µM [rising, partial curve]"
14,Cc1cc(C(=O)N[C@@H](c2ccccc2)[C@]2(C)C[C@H]2[C@@H](C)C(=O)Nc2ccc3ccccc3c2)no1,"inconclusive: 15.8 µM [rising, single point]"
15,CC(C)c1cccc2cc3c(nc12)-c1cccc(=O)n1C3,"inconclusive: 12.6 µM [activator, partial curve]"
16,CCC[C@@H]1C[C@@]1(CCC)C(NP(=O)(c1ccccc1)c1ccccc1)c1ccc(Cl)cc1 (stereo not given in full),"inconclusive: 6.31 µM [rising, partial curve]"
17,COc1ccccc1-c1cc(=O)c2cc(O)ccc2o1,"inconclusive: 15.1 µM [rising, partial curve]"
18,COc1ncc2nc(-c3ccc(Cl)cc3)c(=O)n(CCc3ccccc3)c2n1,inactive
19,O=c1c(-c2ccc(Cl)cc2)nc2cnc(Nc3ccccc3)nc2n1C1CC1,inactive
20,CC[C@@H]1OC(=O)[C@H](C)[C@H](O[C@@H]2C[C@](C)(OC)[C@H](O)[C@H](C)O2)[C@H](C)[C@H](O[C@@H]2O[C@@H](C)C[C@@H](N(C)C)[C@@H]2O)[C@](C)(O)C[C@H](C)[C@@H]2N[C@H](COCCOC)O[C@H]([C@@H]2C)[C@]1(C)O,inactive
21,Cc1ccc(N2CCN(CCC(=O)O)CC2)cc1,inactive
22,COc1ccc(-n2c(=O)c(-c3ccc(Cl)cc3)nc3cncnc32)cc1,"inconclusive: 2 µM [activator, single point]"
23,CCC/C=C(\CCC)C(NC(=O)c1ccco1)c1ccc(C(=O)OC)cc1 (stereo not given),"inconclusive: 7.94 µM [rising, partial curve]"
24,CC(C)C[C@@H](CC(=O)N[C@@H](CCC(=O)O)CC(=O)O)NC(=O)[C@@H]1CCCC[C@H]1NC(=O)C[C@@H](NC(=O)C[C@H](Cc1c[nH]c2ccccc12)NC(=O)[C@@H]1CNCC[C@H]1N)C(C)C,inactive
25,O=C(O)[C@@H](c1ccccc1)[C@@H](C(=O)O)c1ccccc1,inactive
26,CC(C)NC(=O)N1CCC2(CC1)CCN(C(=O)c1csnn1)CC2,inactive
27,O=C(O)C(Cc1cccs1)C(=O)O,inactive
28,CCCC[C@@H]1C[C@H]1C(NS(=O)(=O)c1cccc2cccnc12)c1ccc(-c2ccccc2)cc1 (stereo not given in full),"inconclusive: 7.94 µM [activator, partial curve]"
29,O=c1cnc2cncnc2n1Cc1ccc(F)cc1,"inconclusive: 10 µM [activator, partial curve]"
30,COC(=O)[C@@]1(Cc2ccccc2)[C@H]2c3cc(C(=O)N(C)C)n(Cc4ccc(O)c(OC)c4)c3C[C@H]2CN1C(=O)c1ccccc1,inactive
